This is one part of the list. The energies were worked out here from pooled read counts, against the library average; single values are noisy.
Target: T1, Pho4 (S. cerevisiae) (UniProt P07270)
T1 sequence: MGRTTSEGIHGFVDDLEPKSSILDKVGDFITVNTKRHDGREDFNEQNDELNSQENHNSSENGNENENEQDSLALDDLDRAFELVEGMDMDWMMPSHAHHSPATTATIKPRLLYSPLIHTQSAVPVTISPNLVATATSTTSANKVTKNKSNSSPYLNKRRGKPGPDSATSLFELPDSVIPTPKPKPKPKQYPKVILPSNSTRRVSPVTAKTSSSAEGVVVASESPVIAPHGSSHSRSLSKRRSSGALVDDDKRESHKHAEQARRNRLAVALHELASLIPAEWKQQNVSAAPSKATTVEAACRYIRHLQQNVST
Assay: relative binding free energy (BET-seq); higher = weaker binding
Conditions: reference: library average

| Sequence | relative binding free energy [kcal/mol] |
| --- | --- |
| TATCGCACGTGTAATG | -0.07 |
| GGGGCCACGTGTGTTT | -0.19 |
| ATGATCACGTGATTTG | 0.32 |
| AGATTCACGTGGTAGC | 0.28 |
| TTTGCCACGTGATTTG | 0.1 |
| GGGGTCACGTGAAAGT | 0.43 |
| AGGGCCACGTGTAAGT | 0.03 |
| AATTTCACGTGACGTT | 0.23 |
| TAGTTCACGTGATGAT | 0.33 |
| AGGGGCACGTGTAAGC | -0.01 |
| GAAAACACGTGGTGTG | -0.03 |
| AGTCGCACGTGTGTTG | 0.01 |
| AGATTCACGTGGGTTA | 0.16 |
| GTACGCACGTGCGGGT | 0.02 |
| TTTATCACGTGGCTAT | 0.12 |
| CGAGGCACGTGGATGA | 0 |
| GTAGACACGTGTGTGA | -0.06 |
| CAGTTCACGTGGTGGG | 0.23 |
| TTGTTCACGTGAGGCC | 0.44 |
| TTAGTCACGTGGCAGT | 0.04 |
| ATAAACACGTGCTGTT | -0.01 |
| GTGTACACGTGACGTT | 0.21 |
| TTTGACACGTGGGGGA | -0.12 |
| TAGATCACGTGAGAGT | 0.29 |
| ACGTGCACGTGGGTGC | -0.3 |

| Sequence | relative binding free energy [kcal/mol] |
| --- | --- |
| GGTTGCACGTGTTTAC | 0.08 |
| AGTGCCACGTGTCGGT | -0.08 |
| GATTACACGTGTCGGT | 0.17 |
| ACGGACACGTGAGGGG | 0.19 |
| ACGTGCACGTGAGGCG | 0.2 |
| GTGTACACGTGTGTGT | 0.12 |
| GGTGACACGTGAGCAG | 0.18 |
| AAGCTCACGTGGGAGG | 0.09 |
| GTAGTCACGTGTGTGG | 0.24 |
| TATTGCACGTGAATGC | 0.14 |
| CGGAGCACGTGGCGTG | 0.02 |
| TTAGTCACGTGGTCCT | -0.04 |
| TGGTTCACGTGCATTA | 0.4 |
| TTACGCACGTGGGATG | -0.33 |
| CTAGTCACGTGAGTGT | 0.31 |
| GTTGTCACGTGTATTC | 0.23 |
| GGTGGCACGTGGGATT | -0.03 |
| GTTAACACGTGGAGGA | 0.13 |
| TATTGCACGTGAGGAG | 0.06 |
| GATATCACGTGATTAG | 0.23 |
| GGGTGCACGTGGCGAG | -0.14 |
| TGCGGCACGTGTGGTG | -0.04 |
| CTTGTCACGTGTAGGG | 0.2 |
| CAGTACACGTGTTGGT | 0.05 |
| ATTTGCACGTGCGGGT | -0.06 |

| Sequence | relative binding free energy [kcal/mol] |
| --- | --- |
| TTTTGCACGTGATATG | 0.08 |
| CGATTCACGTGGTGGA | 0.1 |
| TATTACACGTGTTGCT | 0.09 |
| GGGGTCACGTGCACTT | 0.22 |
| AGGTTCACGTGAACTG | 0.28 |
| GTGATCACGTGACTGT | 0.39 |
| CTGAGCACGTGGGCGG | -0.23 |
| TAGGGCACGTGAGTTG | 0.09 |
| CTGGTCACGTGTTATA | 0.03 |
| GGTTTCACGTGCACTG | 0.37 |
| CTGGACACGTGAGTGT | 0.1 |
| TTGTCCACGTGTTTCG | 0.11 |
| AGGGCCACGTGAAGGG | 0.13 |
| ATGCCCACGTGAGGGG | 0.07 |
| GGTAGCACGTGATGAT | 0.09 |
| TATGTCACGTGCCTGT | 0.06 |
| TTATTCACGTGTCAAT | 0.18 |
| TTATTCACGTGCGTGA | 0.3 |
| CCCGGCACGTGGGGTG | -0.26 |
| TGGTGCACGTGATCTT | 0.02 |
| TGTGGCACGTGAGCAG | 0.1 |
| TTGGGCACGTGTCGTG | 0.01 |
| GGGCGCACGTGAAGTG | 0.28 |
| TGATTCACGTGGTGCT | 0.25 |
| TCTAGCACGTGGGATG | -0.11 |

| Sequence | relative binding free energy [kcal/mol] |
| --- | --- |
| TGGATCACGTGGAGGC | 0.17 |
| TCGGGCACGTGGGCTG | -0.23 |
| TTTGACACGTGGAAAG | 0.15 |
| TTGGGCACGTGTGCCG | -0.11 |
| AGAAGCACGTGAGTTT | 0.1 |
| TTTCGCACGTGAACGT | 0.23 |
| GTGGCCACGTGTTGAT | 0.03 |
| ATTAGCACGTGCGGCG | -0.11 |
| GATAGCACGTGTTCGT | -0.08 |
| TTAGACACGTGTGGAG | 0.07 |
| CGTAACACGTGGTGGA | 0.04 |
| GAGATCACGTGGTGGC | 0.18 |
| TAAGGCACGTGACGTT | 0.07 |
| GGTAACACGTGCCGGG | -0.07 |
| TCTAGCACGTGCGGTG | -0.16 |
| GGTAGCACGTGGTATA | -0.15 |
| AAAGGCACGTGGGGGT | -0.2 |
| CTCGGCACGTGGAGCG | 0.04 |
| TACTGCACGTGTGGTT | -0.05 |
| TCGGTCACGTGATGGT | 0.24 |
| ATATTCACGTGGAGCG | 0.13 |
| TTCAGCACGTGGTTAG | -0.11 |
| AGTGGCACGTGGTCAA | -0.26 |
| TCAGGCACGTGGGAGT | -0.12 |
| GGCTACACGTGGTTTG | 0 |

| Sequence | relative binding free energy [kcal/mol] |
| --- | --- |
| AGTGCCACGTGATATG | 0.05 |
| TTAGTCACGTGCGTTG | 0.05 |
| ATTGTCACGTGGTCTT | -0.04 |
| ATGTGCACGTGGCTAG | -0.2 |
| TTAGCCACGTGGGTTA | -0.31 |
| TGCGTCACGTGAAGAG | 0.34 |
| GTAATCACGTGTGGTG | 0.21 |
| ACTTTCACGTGTTTTA | 0.21 |
| AAATGCACGTGGGTTC | -0.13 |
| TTCATCACGTGTGTCT | 0.13 |
| ATGTACACGTGTATGG | 0.06 |
| TTAAACACGTGGTGTT | -0.1 |
| GGCTACACGTGGGGTG | 0.05 |
| TGGCACACGTGTTTGA | 0.12 |
| GTTAGCACGTGTTATA | 0.06 |
| GCTTGCACGTGGTTAG | -0.04 |
| GTAGGCACGTGAAGTA | 0.13 |
| TAAGTCACGTGCAAGT | 0.26 |
| TAAATCACGTGGAATG | 0.16 |
| GTTTTCACGTGGGCTG | 0.12 |
| TCATTCACGTGTAGTA | 0.19 |
| AGGAGCACGTGGGTCC | -0.18 |
| TGGCTCACGTGTGGAG | 0.24 |
| TCGAGCACGTGGGTAG | -0.25 |
| TGCTACACGTGTGTTT | 0.13 |

| Sequence | relative binding free energy [kcal/mol] |
| --- | --- |
| GTGTACACGTGTGTAT | 0.02 |
| CGTAACACGTGTTGTA | -0.14 |
| TAGTTCACGTGCGTGC | 0.12 |
| AAAATCACGTGATGGT | 0.23 |
| TGTTCCACGTGGATTG | 0.04 |
| TAAGACACGTGAGGTG | 0.22 |
| TTGGGCACGTGGAGAG | 0.01 |
| ATCATCACGTGGTGAT | 0.19 |
| GGCGTCACGTGTGACG | 0.39 |
| CGTGGCACGTGTTGCT | -0.01 |
| GCTTGCACGTGTGCGT | 0.02 |
| TCTGGCACGTGTGTGA | -0.1 |
| CTATTCACGTGATGGT | 0.35 |
| AGTCGCACGTGGTTTG | -0.04 |
| GAGGGCACGTGCTGGA | -0.11 |
| TCGGGCACGTGGCTTG | -0.04 |
| TTAGGCACGTGCCTGG | -0.22 |
| GTAGTCACGTGTCATG | 0.14 |
| CGCAGCACGTGTGGGG | -0.07 |
| TGATTCACGTGGCGTA | 0.14 |
| CATTGCACGTGCGTGT | -0.11 |
